Among all 110,000 compounds or so, about 230 (0.21%) showed an effect of 50% or more. This is one part of the list.

The results in this text go back to article PMC6919601, “Identification of Plasmodium dipeptidyl aminopeptidase allosteric inhibitors by high throughput screening” (PLoS ONE, 2019).
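Further: 30 min substrate incubation versus DMSO and 10 µM JCP410 controls.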

The target of the assay is DPAP1 (Plasmodium falciparum, UniProt Q8IIJ9). The experiment in a line: primary screen, percent inhibition; read by cleavage of a fluorogenic dipeptide substrate; higher = more effect of the substance. More on the design: species or system P. falciparum D10 trophozoite lysates; single well.
DPAP1, sequence (Q8IIJ9 whole entry, looked up): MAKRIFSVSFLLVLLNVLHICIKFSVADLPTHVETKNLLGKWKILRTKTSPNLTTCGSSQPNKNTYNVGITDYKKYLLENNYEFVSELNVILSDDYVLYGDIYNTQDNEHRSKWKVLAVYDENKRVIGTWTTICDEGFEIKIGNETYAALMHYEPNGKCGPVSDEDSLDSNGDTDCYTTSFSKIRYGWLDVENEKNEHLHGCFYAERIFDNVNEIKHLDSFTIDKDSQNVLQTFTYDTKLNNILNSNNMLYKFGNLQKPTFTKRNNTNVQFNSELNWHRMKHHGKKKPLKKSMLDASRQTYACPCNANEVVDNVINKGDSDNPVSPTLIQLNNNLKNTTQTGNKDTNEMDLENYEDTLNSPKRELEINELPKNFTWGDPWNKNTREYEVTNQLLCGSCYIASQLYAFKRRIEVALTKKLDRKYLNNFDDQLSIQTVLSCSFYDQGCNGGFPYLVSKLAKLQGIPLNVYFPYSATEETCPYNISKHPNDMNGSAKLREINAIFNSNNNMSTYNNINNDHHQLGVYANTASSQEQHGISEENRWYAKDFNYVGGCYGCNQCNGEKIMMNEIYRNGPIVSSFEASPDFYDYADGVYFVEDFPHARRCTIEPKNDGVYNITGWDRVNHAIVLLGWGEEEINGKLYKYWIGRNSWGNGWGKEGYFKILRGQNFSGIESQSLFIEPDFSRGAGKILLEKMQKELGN
For the compound `COc1ccc(C(CC(=O)O)NC(=O)c2ccccc2)cc1` (stereo not drawn), the “% Inhibition @ 10 uM” value is on record as -3.16%. Then `Cc1ccc(CNC(=O)c2cc(O)nc3ccc(S(=O)(=O)N4CCC(C)CC4)cc23)cc1`, with -0.519%; and `O=C1CC(c2ccc(Cl)cc2Cl)c2ccc3ccccc3c2N1` (stereo not drawn), with -2.35%.

`O=[N+]([O-])c1ccc(S(=O)(=O)NCc2ccco2)cc1`: the “% Inhibition @ 10 uM” value is 2.05%. Then `O=C1CC(c2ccccc2)CC(O)=C1/C=N/CCO` (stereo not drawn), with 1.58%; and `COc1ccc(/C=N/n2c(C)nnc2C)cc1Br`, with 9.21%; and `Cc1[nH]c2ccccc2c1CN1CCOCC1`, with 4.55%. As to `CCOC(=O)c1ccc(NC(=O)c2ccc(N3C(=O)c4ccccc4C3=O)cc2)cc1`, the “% Inhibition @ 10 uM” value amounted to 1.96%.

In the case of `CN1CCN(CCOc2ccccc2-c2ccccc2)CC1`, the “% Inhibition @ 10 uM” value is listed as -4.54%.

For the compound `N#C/C(=C\Nc1ccc(C(N)=O)cc1)c1nc(-c2ccccc2)cs1`, the “% Inhibition @ 10 uM” value is on record as -5.07%. Then `CCOc1ccc2nc(SCC(=O)NCc3cccc(C(F)(F)F)c3)sc2c1`, with 2.03%. On to `[O-][n+]1onc2ccc(Cl)cc21`, for which the “% Inhibition @ 10 uM” value is given as -1.6%. For the compound `O=C1N/C(=C/c2c[nH]c3ccccc23)C(=O)N1Cc1ccccc1F`, the “% Inhibition @ 10 uM” value came to 33.2%. Then `COc1ccc(CC(=O)Nc2ccc(F)cc2)cc1`, with -1.86%. As for `CCOC(=O)C1=C(CS(=O)(=O)c2ccccc2)NC(=O)NC1c1ccc(O)cc1` (stereo not drawn), the “% Inhibition @ 10 uM” value is -2.16%. With `Cc1nn(-c2ccccc2)c(-n2cccc2)c1C(=O)N1CCCCC1C` (stereo not drawn), the “% Inhibition @ 10 uM” value worked out at 0.137%.

As for `CCOC(=O)N1CCN(C(=O)c2ccc(CSc3ccc(Cl)cc3)cc2)CC1`, the “% Inhibition @ 10 uM” value is -2.87%. Regarding `Cc1ccc(N(CC(=O)Nc2ccc3c(c2)OCO3)S(C)(=O)=O)c(C)c1`, the “% Inhibition @ 10 uM” value was -1.28%. `O=C(CN1C(=O)c2cccnc2C1=O)c1ccccc1`: the “% Inhibition @ 10 uM” value was 1.63%. Then `COc1ccccc1CNC(=O)C(NS(=O)(=O)c1cccc2nsnc12)c1ccccc1` (stereo not drawn), with -3.23%; and `CC(C)C(c1ccc(N(C)C)cc1)c1ccc(N(C)C)cc1`, with -1.62%; and `Cc1ccc(C)c(N(CC(=O)N2CCOCC2)S(C)(=O)=O)c1`, with -2.22%. As to `O=C(O)/C=C/C(=O)Nc1ccc(/C=C/c2ccccc2)cc1`, the “% Inhibition @ 10 uM” value is given as 2.51%.

In the case of `N#Cc1ccc(Oc2ccc(NC(=O)C3CCCCC3C(=O)O)cc2)cc1` (stereo not drawn), the “% Inhibition @ 10 uM” value is recorded as -3.39%. As for `BrC(=C\c1ccccc1)/C=N/n1cnnc1`, the “% Inhibition @ 10 uM” value turned out to be 13.3%. `O=S(=O)(CC1CC1(Cl)Cl)CC1CC1(Cl)Cl` (stereo not drawn): the “% Inhibition @ 10 uM” value is recorded as -2.04%. In the case of `Cc1ccc(S(=O)(=O)N2CCCCCC2)cc1C`, the “% Inhibition @ 10 uM” value is 1.26%. For the compound `Cc1ccc2oc(-c3ccc(NC(=O)c4ccc(C)c([N+](=O)[O-])c4)cc3)nc2c1`, the “% Inhibition @ 10 uM” value was determined as 1.41%. Then `CCCN(CCC)S(=O)(=O)c1cc(CN2C(=O)c3cccnc3C2=O)ccc1OC`, with -4.21%; and `CC(=O)c1cn(-c2nonc2N)nn1`, with -5.51%; and `CC1=C(C(=O)N2CCOCC2)C(c2ccc(O)cc2)C2=C(O)CC(C)(C)CC2=N1` (stereo not drawn), with -1.48%. `COc1ccc(-c2csc(-c3cc4ccccc4oc3=O)n2)cc1`: the “% Inhibition @ 10 uM” value was determined as 2.7%. Then `COc1ccccc1-c1cc(C(=O)N2CCC(C)CC2)no1`, with -2.65%; and `Fc1ccc(-c2c[n+](-c3ccccc3)c3n2CCCS3)cc1`, with 4.99%; and `COc1ccc(-c2cn3cc(-c4cccc(Cl)c4)nc3n2C)cc1`, with 0.627%.

As for `COc1ccc(N2C(=O)C3C4C=CC(C)(O4)C3C2=O)cc1` (stereo not drawn), the “% Inhibition @ 10 uM” value came to 3.05%. Regarding `COc1ccc(NS(=O)(=O)c2ccc(NC(=O)c3ccccc3Br)cc2)cc1`, the “% Inhibition @ 10 uM” value was -1.6%. Regarding `COc1ccccc1C1CC2=NC(C)=C(C(=O)OCC3CCCO3)C(c3ccccc3F)C2=C(O)C1` (stereo not drawn), the “% Inhibition @ 10 uM” value is recorded as 2.25%. `COc1ccc(NC(=O)/C(NC(=O)c2ccccc2)=C(\C)c2ccccc2)cc1`: the “% Inhibition @ 10 uM” value is recorded as 2.45%. Then `COc1cc(OC)cc(-c2cc3nc(C)c(CCC(=O)NCc4cccnc4)c(C)n3n2)c1`, with 1.26%. Consider `COc1ccc(CC(=O)Nc2c3c(nn2-c2cccc(Cl)c2)CS(=O)(=O)C3)cc1`, for which the “% Inhibition @ 10 uM” value was -4.16%. For the compound `CCn1nc(C)c(CCNC(=O)c2cc3c(=O)n(Cc4ccco4)ccc3nc2C)c1C`, the “% Inhibition @ 10 uM” value is on record as -1.56%. Regarding `Cc1nc2ccc(S(=O)(=O)NCC(=O)NCCc3ccc(Cl)cc3)cc2s1`, the “% Inhibition @ 10 uM” value is 2.57%. Then `CCOC(=O)c1c(NC(=O)c2cccc(OC)c2)sc(C(=O)NC2CCCC2)c1C`, with -1.17%; and `O=c1c2cnn(-c3ccccc3)c2ncn1C/C=C/c1ccccc1`, with -3.53%; and `CC(C)(C)c1ccc(C(=O)Nc2ccc(S(N)(=O)=O)cc2)cc1Br`, with 3.79%. As to `C#CCn1cc(/C=C(/C#N)C(=O)Nc2ccc(OCC)cc2)c2ccccc21`, the “% Inhibition @ 10 uM” value is on record as -1.32%.

`NC(=O)c1cc(NC(=O)c2ccc([N+](=O)[O-])cc2)c(Cl)cc1Cl`: the “% Inhibition @ 10 uM” value is -0.771%. Then `CCOC(=O)c1c(S(=O)(=O)NCCCOC)c(C)n(C)c1C`, with -4.9%; and `Cc1ccccc1CN(c1ccc(C(=O)N(C)Cc2ccccc2)cc1)S(C)(=O)=O`, with 1.1%; and `COc1ccc(OC)c(C(O)CNC2CCNCC2)c1` (stereo not drawn), with -1.57%. Take `COc1ccc(Cl)cc1N(CC(=O)N1CCCCC1)S(C)(=O)=O`: the “% Inhibition @ 10 uM” value stood at 0.643%.

Regarding `c1cc2c(cc1CN1CCSCC1)OCO2`, the “% Inhibition @ 10 uM” value is listed as -1.92%. With `COCCN1C(=O)c2[nH]nc(-c3ccccc3O)c2C1c1ccccc1F` (stereo not drawn), the “% Inhibition @ 10 uM” value is reported as -4.95%. With `COc1cc(C(C)=O)ccc1OCC(O)Cn1nc(C)c(C)c1C` (stereo not drawn), the “% Inhibition @ 10 uM” value is -1.05%. For `Cc1ccc(S(=O)(=O)N2CCN(C(c3ccccc3)c3ccccc3)CC2)cc1`, the “% Inhibition @ 10 uM” value is on record as -0.128%.

As to `CCc1cccc(CC)c1NC(=O)c1cncc(Br)c1`, the “% Inhibition @ 10 uM” value is reported as -5.3%.

Consider `COc1ccc2oc(=O)cc(CN3CCN(C(=O)c4cc(OC)c(OC)c(OC)c4)CC3)c2c1`, for which the “% Inhibition @ 10 uM” value is recorded as -4.67%. In the case of `N#CCc1nc(CSc2nnnn2-c2ccccc2)cs1`, the “% Inhibition @ 10 uM” value is 1.72%.

Regarding `CCOc1ccc(-n2nnc(-c3nc(-c4ccccc4)no3)c2N)cc1`, the “% Inhibition @ 10 uM” value was 2.15%.

As for `C=CCOC(=O)c1sc(N2C(=O)c3oc4ccccc4c(=O)c3C2c2ccc(Cl)cc2)nc1C` (stereo not drawn), the “% Inhibition @ 10 uM” value is reported as -5.11%. `O=C(CN(c1ccc(F)cc1)S(=O)(=O)c1ccc2c(c1)OCCO2)N1CCc2ccccc2C1`: the “% Inhibition @ 10 uM” value was -12.4%. As for `Cc1cc(CNC(=O)c2ccc(Cn3c(SCc4ccc(F)cc4)nc4cccnc43)cc2)[nH]n1`, the “% Inhibition @ 10 uM” value turned out to be 4.79%.
